The values that follow come from PMC4336329 (PLoS ONE, 2015).

Hit rate of the full screen: of about 310,000 compounds, about 2,200 (0.71%) showed an effect of 50% or more. The effect is printed as a negative number. The list shows a part of the results.

For this experiment, the target named is human ether-à-go-go-related gene (hERG) potassium channel (human, UniProt Q12809). The experiment can be described thus: primary screen, population patch clamp on CHO cells stably expressing hERG.
Sequence of human ether-à-go-go-related gene (hERG) potassium channel (Q12809 whole entry, looked up): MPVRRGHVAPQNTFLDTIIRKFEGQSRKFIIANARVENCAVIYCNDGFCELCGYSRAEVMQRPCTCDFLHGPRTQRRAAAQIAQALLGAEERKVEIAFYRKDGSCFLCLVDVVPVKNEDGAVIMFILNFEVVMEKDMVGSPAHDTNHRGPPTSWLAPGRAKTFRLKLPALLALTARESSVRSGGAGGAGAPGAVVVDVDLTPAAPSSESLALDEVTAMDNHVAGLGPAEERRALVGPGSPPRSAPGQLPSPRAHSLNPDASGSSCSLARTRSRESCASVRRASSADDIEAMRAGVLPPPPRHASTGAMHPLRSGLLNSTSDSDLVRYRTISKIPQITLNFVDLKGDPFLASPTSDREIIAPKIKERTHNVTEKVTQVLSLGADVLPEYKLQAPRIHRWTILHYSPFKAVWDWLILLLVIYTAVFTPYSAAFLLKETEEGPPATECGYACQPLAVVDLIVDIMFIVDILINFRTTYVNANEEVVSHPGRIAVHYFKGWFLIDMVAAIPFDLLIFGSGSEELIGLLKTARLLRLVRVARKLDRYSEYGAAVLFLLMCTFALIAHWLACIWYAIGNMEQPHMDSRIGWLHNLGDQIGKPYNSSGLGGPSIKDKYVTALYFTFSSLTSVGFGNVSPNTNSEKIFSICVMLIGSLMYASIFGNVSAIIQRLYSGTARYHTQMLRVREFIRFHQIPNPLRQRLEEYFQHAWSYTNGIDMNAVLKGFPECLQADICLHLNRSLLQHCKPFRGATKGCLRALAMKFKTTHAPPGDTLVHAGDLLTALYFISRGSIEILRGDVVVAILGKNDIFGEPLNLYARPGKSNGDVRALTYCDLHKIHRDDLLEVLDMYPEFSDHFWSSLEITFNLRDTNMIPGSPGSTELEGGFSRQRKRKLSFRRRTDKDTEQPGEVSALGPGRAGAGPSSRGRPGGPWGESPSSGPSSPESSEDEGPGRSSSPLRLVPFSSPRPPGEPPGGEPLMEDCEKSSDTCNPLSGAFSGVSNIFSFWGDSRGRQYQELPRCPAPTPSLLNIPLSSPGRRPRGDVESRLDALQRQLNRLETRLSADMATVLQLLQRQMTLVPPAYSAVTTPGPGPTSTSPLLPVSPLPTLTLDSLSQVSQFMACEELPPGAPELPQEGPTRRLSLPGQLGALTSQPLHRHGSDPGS
As for `COc1ccc(N2CC(C(=O)Nc3ccncc3)CC2=O)cc1` (stereo not drawn), the “hERG current change (%, negative = inhibition) at 1uM” value is recorded as 17.1%.
Next, `CCOC(=O)C1C(c2ccc(Cl)cc2)NC(=S)NC1(O)C(F)(F)F` (stereo not drawn): 12.3%; `Cc1ccc2nc3nc(NCC4CCCO4)c(C(=O)NC4CCCCC4)cc3c(=O)n2c1` (stereo not drawn): -76.8%; `CC(=O)c1cc2c(cc1NC(=O)CN1CCOCC1)OCO2`: 4.92%.
`Cc1cc(C(=O)N/N=C\c2ccc(COc3ccc([N+](=O)[O-])cc3)o2)ccc1[N+](=O)[O-]`: the “hERG current change (%, negative = inhibition) at 1uM” value turned out to be 10.9%.
In the case of `O=C(c1cccs1)N1CCN(Cc2ccc3c(c2)OCO3)CC1` it was -4.34%; in that of `COc1ccc(-c2cc(CS(=O)(=O)c3ccccc3)on2)cc1`, -3.98%.
In the case of `COc1cc(C(C#N)N2CCCCC2)ccc1O` (stereo not drawn), the “hERG current change (%, negative = inhibition) at 1uM” value turned out to be 12.1%.
Next, `CN1CCN(CC(O)COCCOc2ccc(Br)cc2)CC1.Cl` (stereo not drawn): 2.93%.
For the molecule `CCOC(=O)c1c(-c2ccc(C)o2)csc1NC(=O)CSc1nnnn1-c1ccccc1`, the “hERG current change (%, negative = inhibition) at 1uM” value turned out to be 0.534%.
Next, `COc1ccc(/C(C)=N/NC(=O)C2C3CCCCC32)c(OC)c1` (stereo not drawn): 6.42%.
Regarding `Cn1c(=O)c2ncn(CC(=O)Nc3cccc(-c4nc5ccccc5s4)c3)c2n(C)c1=O`, the “hERG current change (%, negative = inhibition) at 1uM” value stood at 1.23%.
Next, `CCN(CC)S(=O)(=O)c1ccc(F)c(C(=O)NCCC(C)C)c1`: -4.04%.
Next, `COc1ccc(N(C(=O)CNC(=O)c2ccco2)C(C(=O)NCC2CCCO2)c2ccccc2)cc1Cl` (stereo not drawn): 15.4%; `CCc1ccccc1NC(=O)c1ccc2c(O)c(S(=O)(=O)c3ccc(OC)cc3)c(=O)[nH]c2c1`: 17.2%; `O=C(O)C1CC=CCC1C(=O)Nc1ccccc1` (stereo not drawn): -5.85%.
Next, `COc1cccc(N2CCN(C(=O)C3C4C=CC5(CN(Cc6ccccc6Cl)C(=O)C35)O4)CC2)c1` (stereo not drawn): 15.1%; `CC(C)Oc1ccc(/C=C(\NC(=O)/C=C/c2ccco2)C(=O)NCCc2nc3ccccc3[nH]2)cc1`: 4.78%.
Turning to `NC(N)=NS(=O)(=O)c1ccc(N/C=C\C(=O)c2ccncc2)cc1`, the “hERG current change (%, negative = inhibition) at 1uM” value was 11.3%.
Next, `O=C(CCc1nnc(CCCCc2ccccc2)o1)N(CCO)Cc1ccccc1`: 11.2%; `Cc1cc(Oc2cc(NN3CCCCC3)c([N+](=O)[O-])cc2[N+](=O)[O-])c(C(=O)c2ccccc2)cc1Cl`: 1.17%.
In the case of `Cl.N=C(N)SCP(=O)(c1ccccc1)c1ccccc1` it was 12.5%.
In the case of `COc1ccc(OCCNS(=O)(=O)c2cccc([N+](=O)[O-])c2)cc1`, the “hERG current change (%, negative = inhibition) at 1uM” value is reported as 10.5%.
For `Cc1cc(=O)oc(C)c1C(=O)NCCCN1C(C)CCCC1C` (stereo not drawn), the “hERG current change (%, negative = inhibition) at 1uM” value was 20.2%.
As for `COc1ccc(OC)c(C(=O)CSc2nnc(Cc3cccs3)n2C)c1`, the “hERG current change (%, negative = inhibition) at 1uM” value is on record as -3.55%.
In the case of `CN(CC(=O)O)S(=O)(=O)c1cc(Cl)ccc1Cl`, the “hERG current change (%, negative = inhibition) at 1uM” value is on record as 6.43%.
Next, `O=C(Cc1ccc(Cl)cc1)NCCS(=O)(=O)N1CCN(c2ccccc2F)CC1`: 0.739%.
In the case of `Cc1cc(NC(=O)c2cccnc2Cl)ccc1NC(=O)c1cc2ccccc2o1` it was 18.2%; in that of `COc1ccc(CCNC(=O)C(=O)NCc2ccccc2)cc1OC`, 14.2%.
As to `Cc1cc(OCC(=O)NCc2ccc(S(N)(=O)=O)cc2)c2c3c(c(=O)oc2c1)CCC3`, the “hERG current change (%, negative = inhibition) at 1uM” value is recorded as 13.4%.
For the molecule `CCCOc1ccc(C2C3=C(Nc4nc(N)[nH]c(=O)c42)c2ccccc2C3=O)cc1` (stereo not drawn), the “hERG current change (%, negative = inhibition) at 1uM” value is on record as -8.47%.
Next, `C=CCNc1nc(=S)[nH]c2cc(OC)c(OC)cc12`: 8.32%.
Next, `O=C1CCC(=O)N(O)CCCCCNC(=O)CCC(=O)N(O)CCCCNC(=O)CCC(=O)N(O)CCCCCN1`: 9.22%; `COc1ccccc1CC(=O)NC1CCCc2ccccc21` (stereo not drawn): -0.162%; `CCCCc1cc(=O)oc2cc(O)ccc12`: 3.97%.
Next, `O=C(c1ccc([N+](=O)[O-])cc1)n1nc(-c2ccccc2)nc1NCc1ccccc1`: 2.69%; `COc1ccc(/C=N/OCC(=O)NC(c2ccccc2)c2ccccc2)c(OC)c1`: -15.2%; `CCOc1ccc(NC(=O)COC(=O)c2ccc3c(c2)OCCO3)cc1`: 19.5%.
In the case of `CCOc1ccccc1C1CC(=O)Nc2cc3c(cc21)OCCO3` (stereo not drawn), the “hERG current change (%, negative = inhibition) at 1uM” value stood at 4.97%.
Next, `O=S(=O)(Nc1ccc(OC(F)(F)F)cc1)c1cccc2nonc12`: 17.2%; `COc1ccc(-c2nnn(CC(=O)N(CC(=O)NCCC(C)C)Cc3cccs3)n2)cc1OC`: -3.48%.
Turning to `O=C(COc1ccccc1Cl)Nc1ccc(C(=O)O)cc1NC(=O)COc1ccccc1Cl`, the “hERG current change (%, negative = inhibition) at 1uM” value is on record as 13%.
Next, `CCN(CC)c1ccc(/C=N/NS(=O)(=O)c2ccc(C)c([N+](=O)[O-])c2)cc1`: 10.5%; `CC(CCc1ccccc1)NC(=O)COC(=O)c1ccc(NC(=O)CC#N)cc1` (stereo not drawn): 10.6%.
In the case of `N#CCC(=O)NC(=O)NCC1CC1` it was 12.1%.
Next, `CSc1nc2c(c(-c3ccc(O)cc3)c1C#N)CCC2`: 12.2%; `Cc1ccc2c(c1)CCCN2C(=O)c1ccco1`: 8.34%; `COc1ccc(OC)c(NC(=O)c2c3c(nc4ccccc24)CCC3)c1`: -0.839%.
Take `CC1=CC(=O)C=C(C)C1=NOC(=O)/C=C\c1ccccc1`: the “hERG current change (%, negative = inhibition) at 1uM” value is listed as 11.7%.
In the case of `COc1ccc(N2CCN(S(=O)(=O)c3ccc(C(=O)NCc4ccco4)cc3)CC2)cc1` it was 4.71%.
In the case of `CC(=O)Oc1cccc(N2C(=O)C3CC=C(Cl)CC3C2=O)c1` (stereo not drawn) it was 2.21%; in that of `Cc1ccccc1N1CCN(C(=O)CCN2C(=O)c3ccccc3C2=O)CC1`, 1.51%.
For the molecule `C/C=C(\C)CN1CCC(n2nccc2NC(=O)CCc2ccccc2)CC1`, the “hERG current change (%, negative = inhibition) at 1uM” value came to 6.17%.
`CC(=O)NCC(=O)N1CCC(n2nccc2NC(=O)CCCc2ccccc2)CC1`: the “hERG current change (%, negative = inhibition) at 1uM” value is -5.9%.
In the case of `COC(=O)Nc1c(C(=O)OC)cc(OC)c(OC)c1OC` it was 6.05%; in that of `O=[N+]([O-])c1cccc(/C=C2\CCC(/C=N/Nc3ccc4ccccc4n3)=C2N2CCOCC2)c1`, 11.1%.
Next, `COc1ccc(N2CCN(C(=O)COC(=O)CNC(=O)c3ccc(C)cc3)CC2)cc1`: 9.43%.
In the case of `NC(=O)N1N=C2/C(=C/c3ccccc3)CCCC2C1c1ccccc1` (stereo not drawn) it was 15.7%.
For the molecule `Cl.NC(CC(=O)O)c1ccc(F)cc1` (stereo not drawn), the “hERG current change (%, negative = inhibition) at 1uM” value worked out at 2.56%.
Consider `C/C(N)=C(/C#N)C(=O)COC(=O)COc1ccc(Cl)cc1C`, for which the “hERG current change (%, negative = inhibition) at 1uM” value is recorded as 4.95%.
In the case of `Cc1ccc(N2C(=O)NC(NS(=O)(=O)c3ccc(C)cc3)(C(F)(F)F)C2=O)cc1` (stereo not drawn) it was 6.07%; in that of `Clc1ccc(-c2nc(Cc3ccccc3Cl)no2)cc1`, 7.93%; in that of `CC(=O)Nc1ccc(OC(F)(F)C(F)C(F)(F)F)c(NC(C)=O)c1` (stereo not drawn), 15.3%.
Next, `Cc1oc(-c2ccccc2Cl)nc1CS(=O)(=O)CC(=O)NCCN1CCOCC1`: 5.34%; `Cc1cc2c(c(Sc3ccccc3)n1)C(=O)OC2`: -10.8%; `Cc1ccc(NC2OC(CO)C(O)C2O)cc1[N+](=O)[O-]` (stereo not drawn): 8.42%.
Next, `CCNC(=O)NC(=O)C(C)OC(=O)[C@H](C)NS(=O)(=O)c1c(C)c(C)cc(C)c1C` (stereo partly drawn): -7.17%.
Consider `C=CCSc1nnc(NC(=O)c2ccc(S(=O)(=O)NCC3CCCO3)cc2)s1` (stereo not drawn), for which the “hERG current change (%, negative = inhibition) at 1uM” value turned out to be 15%.
On to `COC(=O)c1cccc(C(=O)Nc2ccc(C)cc2Br)n1`, for which the “hERG current change (%, negative = inhibition) at 1uM” value was -2.04%.
Take `CC(=O)N1CN(CCCn2ccnc2)Cc2c1sc1c2CCCC1`: the “hERG current change (%, negative = inhibition) at 1uM” value is reported as 9.63%.
In the case of `O=C(NC1=NCCS1)c1cccc(OC(F)F)c1`, the “hERG current change (%, negative = inhibition) at 1uM” value is given as 10.3%.
Take `CCC(C)N1CCNCC1.Cl` (stereo not drawn): the “hERG current change (%, negative = inhibition) at 1uM” value stood at 13.9%.
In the case of `CSc1ccc(C(=O)C2CCCN(C(=O)Cn3cnnn3)C2)cc1` (stereo not drawn) it was 1.33%; in that of `CS(=O)(=O)c1ccc2nc(NC(=O)c3cccc(Cl)c3)sc2c1`, 6.95%; in that of `O=S(=O)(N1CCCCC1)N1CCN(c2ccccc2F)CC1`, 9.46%.
In the case of `CC(=O)Nc1sc(C)c(C)c1CN1CCN(S(=O)(=O)c2ccccc2)CC1` it was 2.9%; in that of `COc1cc(/C=N/NC(=O)CCc2c(C)n[nH]c2C)ccc1O`, 12%.
In the case of `O=C(N1CCCCC1)N1CCN(S(=O)(=O)c2ccccc2)CC1` it was 6.85%; in that of `COc1ccc(C(=O)N[C@H](C(=O)Nc2nc3c(s2)CCCC3)C(C)C)cc1`, 7.47%; in that of `O=S(=O)(CC(O)COc1ccc(Br)cc1)c1ccccc1` (stereo not drawn), 10.4%.
For the molecule `O=C(COc1ccc(S(=O)(=O)N2CCCCC2)cc1Cl)N1CCOCC1`, the “hERG current change (%, negative = inhibition) at 1uM” value amounted to 13.5%.
With `CN=c1scc(C)n1/N=C/c1ccc(O)cc1`, the “hERG current change (%, negative = inhibition) at 1uM” value amounted to 10.3%.
With `CC(C)OC(=O)Nc1ccc(-c2ccc(NC(=O)OC(C)C)cc2Cl)c(Cl)c1`, the “hERG current change (%, negative = inhibition) at 1uM” value amounted to 16.4%.
Regarding `N#C/C(=C\c1ccc(F)cc1)C(=O)NC1CCS(=O)(=O)C1` (stereo not drawn), the “hERG current change (%, negative = inhibition) at 1uM” value was 13.2%.
As to `COc1ccc(-c2nc(=S)c3c([nH]2)Oc2ccc(C)cc2C3)cc1O`, the “hERG current change (%, negative = inhibition) at 1uM” value is reported as 13%.
Next, `COC(=O)C1=C(c2c(C)noc2C)C[C@@H]2CC[C@H]1N2C(=O)NCCOc1ccccc1Cl`: 13.8%; `COc1ccc(N(C)S(=O)(=O)c2ccc(Cl)c(C(=O)NCC(C)(C)N3CCOCC3)c2)cc1`: -21.1%.
